In patent publication US8735349B2, “Method for improving glucose tolerance in a diabetes type 2 patient of younger than 50 years and having postprandial plasma glucose concentration of at least 14 mmol/L” (priority 2011, dated 2014):

Experiments:
[1] = system: obese type 2 diabetic patients younger than 50 and not adequately controlled with metformin; experiment: Example 2: patients requiring rescue therapy during the double-blind treatment period; details: mITT
[2] = system: obese type 2 diabetic patients younger than 50 and not adequately controlled with metformin; experiment: Example 2: composite responders (HbA1c <7% and weight loss of at least 5%) at Week 24, lixisenatide vs sitagliptin as add-on to metformin
[3] = system: obese type 2 diabetic patients younger than 50 and not adequately controlled with metformin; experiment: Example 2: HbA1c change from baseline and HbA1c responders; details: add-on to metformin, mITT

## N[C@@H](CC(=O)N1CCn2c(nnc2C(F)(F)F)C1)Cc1cc(F)c(F)cc1F [sitagliptin]
[1]
  Patients requiring rescue therapy during the double-blind treatment period: 11 (6.8%) n (%)
[2]; add-on to metformin, mITT, LOCF
  percentage of patients with HbA1c<7% at Week 24 and a weight loss of at least 5% of baseline body weight at Week 24: 7.5%
[2]; mITT population
  Response rate: patients with HbA1c <7% at Week 24 and weight loss of ≧5% of baseline body weight at Week 24: 12 (7.5%) n (%)
[3]
  patients with HbA1c<7% at Week 24: 40.0%
